Experimental data from US20170044150A1, “IDENTIFICATION OF COMPOUNDS WHICH INHIBIT ATG8-ATG3 PROTEIN-PROTEIN INTERACTION AND THEIR USE AS ANTIPARASITICAL AGENTS” (THE JOHNS HOPKINS UNIVERSITY, priority 2014, published 2017).

Target: PfAtg8-PfAtg3 interaction (Plasmodium falciparum, UniProt Q8IJK2)
Assay type: binding, P. falciparum
Details: 5 μM

Chain of PfAtg8-PfAtg3 interaction (Q8IJK2 whole entry C32I/C119S/C122S): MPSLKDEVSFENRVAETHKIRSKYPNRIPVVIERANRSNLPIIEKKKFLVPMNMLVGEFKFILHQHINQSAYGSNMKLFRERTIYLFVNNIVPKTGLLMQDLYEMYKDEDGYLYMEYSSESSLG

SMILES | inhibition of the PfAtg8-PfAtg3 interaction in primary SPR screen
CSc1ccccc1C(=O)Nc1nc(-c2ccccn2)cs1 [Compound 2, 2-methylsulfanyl-N-(4-pyridin-2-yl-1,3-thiazol-2-yl)benzamide] | at least twenty five percent inhibition
Cc1ccc(-c2cc3c(SCC(=O)Nc4cc(C(F)(F)F)ccc4Cl)nccn3n2)cc1 [Compound 4, N-[2-chloro-5-(trifluoromethyl)phenyl]-2-[2-(4-methylphenyl)pyrazolo[1,5-a]pyrazin-4-yl]sulfanylacetamide] | at least twenty five percent inhibition
CN(C)c1ccc(N2C(N)=NC(N)=NC2(C)C)cc1 [Compound 5, 1-[4-(dimethylamino)phenyl]-6,6-dimethyl-1,3,5-triazine-2,4-diamine] | at least twenty five percent inhibition
Brc1ccc(Nc2nc3ccccc3nc2Nc2ccc(Br)cc2)cc1 [Compound 6, 2-N,3-N-bis(4-bromophenyl)quinoxaline-2,3-diamine] | at least twenty five percent inhibition
